In the supplement of paper PMC4967469 one finds AUC and IC50 data, which are given here for 16 cell lines.

Common to all, as to assay: Viability of human cancer cell lines after 72 h of drug (GDSC screen)
Compound in one assay: COC1=CC(c2cc3ccccc3[nH]2)=N/C1=C\c1[nH]c(C)cc1C [Obatoclax mesylate]
The settings on record: top dose 16 µM. How it is done: (§1)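 Human cancer cell lines in 384-well plates, medium with 10% serum, drug for 72 h over a 256-fold dose range (nine 2-fold or five 4-fold steps up to the top dose). Adherent lines were fixed and stained with the nucleic acid dye Syto60, suspension lines read with resazurin; signal relative to control wells, capped at 0 and 100%. One two-parameter sigmoid per drug and line, fitted in a mixed model over all curves with the slope shared within a line.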

Compound in the next assay: COCC(=O)NC/C=C/c1ccc2ncnc(Nc3ccc(Oc4ccc(C)nc4)c(C)c3)c2c1 [CP724714]
The note with it: top dose 10.24 µM; top dose inferred. How it is done:
as §1

Compound in a further assay: Cc1cccc(Nc2nc(-c3ccncc3)cs2)c1 [STF-62247]
The note with it: top dose 10.24 µM; top dose inferred. How it is done: as §1

Compound in a further assay: Cc1cnc(CNC(=O)c2c(=O)c3ccc(N4CCCN(C)CC4)nc3n3c2sc2ccccc23)cn1 [CX-5461]
The settings on record: top dose 10.24 µM; top dose inferred. The protocol:
as §1

By IC50 is commonly meant the concentration needed to halve the response being measured.

The IC50 comes from the fitted curve, where viability falls to half of the control; a limit (>, <) means that the fit lies beyond the doses tested. For AUC the same curve is integrated over the 256-fold range of doses and scaled to a fraction; it is 1 without any effect and falls as sensitivity rises. For some of these results: Where the top dose is marked as inferred, it was calculated from the reported fits.

Consider SW626 (ovary, adherent), for which the AUC was 0.172 in the assay with Obatoclax mesylate, 0.787 in the assay with CP724714, 0.974 in the assay with STF-62247 and 0.954 with CX-5461. Besides, the IC50 with Obatoclax mesylate was 0.0805 µM; with CP724714 it was 5.36 µM; in the assay with STF-62247, more than 10.2 µM; with CX-5461, more than 10.2 µM.

On to SW756 (cervix, adherent), for which the AUC in the assay with Obatoclax mesylate stood at 0.175; with CP724714 it was 0.973; with STF-62247, 0.985; with CX-5461, 0.985. Besides, the IC50 in the assay with Obatoclax mesylate was 0.0824 µM; with CP724714 it was more than 10.2 µM; in the assay with STF-62247, more than 10.2 µM; in the assay with CX-5461, more than 10.2 µM.

On to SW780 (bladder, adherent), for which the AUC with Obatoclax mesylate worked out at 0.579; with CP724714 it was 0.98; with STF-62247, 0.985; in the assay with CX-5461 it was 0.986. Moreover, the concentration for half-maximal inhibition (IC50) is 1.68 µM with Obatoclax mesylate, more than 10.2 µM in the assay with CP724714, more than 10.2 µM in the assay with STF-62247 and more than 10.2 µM with CX-5461.

In the case of SW837 (large intestine, adherent), the AUC in the assay with Obatoclax mesylate is 0.39; in the assay with CP724714 it was 0.952; with STF-62247, 0.982; with CX-5461 it was 0.726. In addition, the IC50 with Obatoclax mesylate was 0.452 µM; with CP724714, more than 10.2 µM; with STF-62247 it was more than 10.2 µM; with CX-5461, 3.52 µM.

With “SW900 (lung squamous cell carcinoma, adherent)”, the AUC with Obatoclax mesylate turned out to be 0.708; with CP724714, 0.983; in the assay with STF-62247, 0.985; in the assay with CX-5461, 0.941. For the same cell line, the IC50 is 4.28 µM in the assay with Obatoclax mesylate, more than 10.2 µM with CP724714, more than 10.2 µM with STF-62247 and more than 10.2 µM with CX-5461.

Consider SW948 (large intestine, adherent), for which the AUC with Obatoclax mesylate came out at 0.75; with CP724714 it was 0.972; with STF-62247, 0.979; in the assay with CX-5461 it was 0.966. The 50% inhibitory concentration (IC50) with CP724714, in the assay with STF-62247 and with CX-5461 was more than 10.2 µM each time.

In the case of SW1088 (glioma, adherent), the AUC with Obatoclax mesylate was determined as 0.643; with CP724714, 0.981; with STF-62247 it was 0.981; in the assay with CX-5461, 0.982. Also, the 50% inhibitory concentration (IC50) in the assay with Obatoclax mesylate was 2.8 µM; in the assay with CP724714, more than 10.2 µM; in the assay with STF-62247 it was more than 10.2 µM; with CX-5461, more than 10.2 µM.

“SW1271 (small cell lung carcinoma, adherent)”: the AUC with Obatoclax mesylate is 0.061; with CP724714, 0.984; with STF-62247 it was 0.982; with CX-5461 it was 0.849. In addition, the IC50 was less than 0.0625 µM in the assay with Obatoclax mesylate, more than 10.2 µM in the assay with CP724714, more than 10.2 µM in the assay with STF-62247 and 9.53 µM with CX-5461.

Regarding SW1417 (large intestine, adherent), the AUC was 0.194 with Obatoclax mesylate, 0.979 with CP724714, 0.985 with STF-62247 and 0.986 with CX-5461. For the same cell line, the IC50 was 0.101 µM with Obatoclax mesylate, more than 10.2 µM with CP724714, more than 10.2 µM with STF-62247 and more than 10.2 µM with CX-5461.

As to SW1463 (large intestine, adherent), the AUC came to 0.511 with Obatoclax mesylate, 0.845 with CP724714, 0.974 with STF-62247 and 0.976 with CX-5461. Moreover, the IC50 with Obatoclax mesylate was 1.09 µM; with CP724714, more than 10.2 µM; with STF-62247, more than 10.2 µM; in the assay with CX-5461 it was more than 10.2 µM.

SW1573 (lung adenocarcinoma, adherent): the AUC in the assay with Obatoclax mesylate amounted to 0.629; in the assay with CP724714, 0.981; in the assay with STF-62247, 0.973; in the assay with CX-5461, 0.981. The IC50 in the assay with Obatoclax mesylate was 2.57 µM; with CP724714, more than 10.2 µM; with STF-62247, more than 10.2 µM; in the assay with CX-5461, more than 10.2 µM.

In the case of SW1710 (bladder, adherent), the AUC with Obatoclax mesylate was found to be 0.111; in the assay with CP724714, 0.974; in the assay with STF-62247, 0.898; in the assay with CX-5461, 0.973. Also, the IC50 with Obatoclax mesylate is less than 0.0625 µM; in the assay with CP724714 it was more than 10.2 µM; with STF-62247 it was more than 10.2 µM; with CX-5461, more than 10.2 µM.

On to SW1783 (glioma, adherent), for which the AUC came out at 0.243 with Obatoclax mesylate, 0.988 in the assay with CP724714, 0.991 in the assay with STF-62247 and 0.991 with CX-5461. Besides, the 50% inhibitory concentration (IC50) with Obatoclax mesylate is 0.199 µM; in the assay with CP724714, more than 10.2 µM; with STF-62247 it was more than 10.2 µM; in the assay with CX-5461 it was more than 10.2 µM.

On to SW1990 (pancreas, adherent), for which the AUC in the assay with Obatoclax mesylate was 0.321; with CP724714 it was 0.975; with STF-62247, 0.98; with CX-5461 it was 0.982. Moreover, the half-maximal inhibitory concentration (IC50) in the assay with Obatoclax mesylate is 0.287 µM; with CP724714, more than 10.2 µM; with STF-62247 it was more than 10.2 µM; with CX-5461 it was more than 10.2 µM.

Consider Saos-2 (osteosarcoma, adherent), for which the AUC with Obatoclax mesylate came to 0.33; with CP724714, 0.981; with STF-62247 it was 0.981; with CX-5461, 0.981. Moreover, the IC50 with Obatoclax mesylate was 0.272 µM; with CP724714 it was more than 10.2 µM; in the assay with STF-62247 it was more than 10.2 µM; with CX-5461, more than 10.2 µM.

As for SiHa (cervix, adherent), the AUC was 0.686 with Obatoclax mesylate, 0.986 with CP724714, 0.986 with STF-62247 and 0.987 in the assay with CX-5461. For the same cell line, the IC50 was 3.61 µM with Obatoclax mesylate, more than 10.2 µM with CP724714, more than 10.2 µM with STF-62247 and more than 10.2 µM with CX-5461.
